“And” between values parts separate entries of the source, which are not always exact repeats. Equal values may be shown once. The whole screen tested about 100,000 compounds, of which about 250 (0.25%) were called active. The shares of active, inactive and inconclusive entries below differ from those in the screen. The call rests on the fitted dose curve; in most records, active means well fitted inhibition curve with a large enough effect; inconclusive means small, poorly fitted or top-dose-only effect; inactive means flat fitted curve, though single readings scatter. Potencies beside an inconclusive call are fits to weak or partial responses and may not hold up.
target: Alanine aminotransferase 2 (Homo sapiens) (UniProt Q8TD30); assay: Primary qHTS assay for inhibitors of Glutamate pyruvate transaminase 2 (GPT2); conditions: Recombinant GPT2, coupled pyruvate oxidase/HRP Amplex Red fluorescence; series mostly up to 57.7 µM; further: nearly all actives have a fitted effect of over 60% in size
Summary of the method: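 Inhibition is scored from Amplex Red fluorescence generated when pyruvate oxidase and HRP act on pyruvate released by GPT2. Reactions contain 10ng/uL enzyme, 250uM a-KG and 2mM L-alanine and run 30 min at room temperature.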
Potency means the concentration at half of the fitted maximal effect; tags describe the fitted curve by direction and shape.

Sequence of UniProt Q8TD30 (Q8TD30 whole entry, looked up): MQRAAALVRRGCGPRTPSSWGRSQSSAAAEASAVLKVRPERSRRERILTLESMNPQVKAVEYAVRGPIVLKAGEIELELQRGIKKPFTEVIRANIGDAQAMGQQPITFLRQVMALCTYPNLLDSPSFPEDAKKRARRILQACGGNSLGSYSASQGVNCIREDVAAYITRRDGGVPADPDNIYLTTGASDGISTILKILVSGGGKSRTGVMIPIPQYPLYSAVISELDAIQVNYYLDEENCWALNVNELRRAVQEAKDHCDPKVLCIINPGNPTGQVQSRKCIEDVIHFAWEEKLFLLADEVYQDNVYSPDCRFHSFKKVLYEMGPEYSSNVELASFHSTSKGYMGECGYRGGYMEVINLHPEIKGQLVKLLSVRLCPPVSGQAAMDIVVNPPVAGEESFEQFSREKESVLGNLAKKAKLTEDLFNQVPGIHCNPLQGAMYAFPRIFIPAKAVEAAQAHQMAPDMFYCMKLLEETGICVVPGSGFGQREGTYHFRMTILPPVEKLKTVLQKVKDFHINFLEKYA

Row | Structure (SMILES) | Potency
1 | COCCn1c(=O)c(C(=O)N2CCN([S+](=O)([O-])c3c(C)noc3C)CC2)nc2cccnc21 | inactive
2 | C=C1C(=O)O[C@@H]2/C=C(/C)CC3C=C(C[C@H](OC(=O)/C(C)=C\C)[C@@H]12)C(=O)O3 (stereo partly drawn) | inconclusive: 1.41 µM [inhibitor, partial curve, poor fit]
3 | Cc1cc2c(s1)Nc1ccccc1N=C2N1CCN(C)CC1 | inconclusive: 35.5 µM [inhibitor, partial curve, poor fit] and inconclusive: 30.6 µM [inhibitor, single point] and inconclusive: 10 µM [inhibitor, partial curve, poor fit]
4 | CC(C)N1C(=O)C2(CCCC2)C1C(=O)Nc1ccncc1 (stereo not drawn) | inconclusive: 39.8 µM [inhibitor, single point]
5 | CC1(C)O[C@H]2C[C@@H]3[C@H]4CCC5=CC(=O)C=C[C@]5(C)[C@@]4(F)[C@@H](O)C[C@]3(C)[C@]2(C(=O)CO)O1 | inconclusive: 43.2 µM [inhibitor, single point]
6 | O=C(NCCc1ccccc1)c1ccc2nnc(-c3cccnc3)n2c1 | inactive
7 | COc1ccc(-c2ccccc2)cc1N1C(=O)[C@@H]2C[C@H]1CN2Cc1nc[nH]c1C | inconclusive: 0.891 µM [inhibitor, full curve, poor fit]
8 | O=C(Cc1ccccc1)N1CCC2(COc3ccncc3S(=O)(=O)N2)C1 (stereo not drawn) | inconclusive: 8.91 µM [inhibitor, single point]
9 | CCCc1ccc(C(=O)N2C[C@@H](CN(C)C)[C@@H](CO)C2)cc1 | inconclusive: 39.8 µM [inhibitor, single point]
10 | CN1[C@H](C(=O)O)C[C@H](C(=O)NCC2(CO)CCCC2)[C@@H]1c1ccccc1F | inconclusive: 39.8 µM [inhibitor, single point]
11 | COc1ccc(NC(=O)N[C@H]2CO[C@H]3[C@@H]2OC[C@@H]3n2nnnc2-c2ccc3c(c2)OCO3)cc1 | inconclusive: 39.8 µM [inhibitor, single point]
12 | Cc1c[nH]c(CN2CCn3nc(C(O)Cc4ccccc4)cc3C2)c(C)c1=O (stereo not drawn) | inactive
13 | Cc1ccc(Cn2c(-c3ccc(F)cc3)nc(C)c(CCO)c2=O)cc1C | inconclusive: 39.8 µM [inhibitor, single point]
14 | O=C(C1CC1)N1CCC2(CC1)CCN(CCc1ccccc1)c1ccccc1O2 | inactive
15 | O=C(NCc1ccccc1F)c1noc(-c2ccc3c(c2)OCO3)n1 | inactive
16 | O=C(NCCc1ccc(Cl)cc1)C1CCc2nnc(-c3ccc(Cl)nc3)n21 (stereo not drawn) | inactive
17 | CCc1nc2c(c(-c3ccc(O)cc3)n1)CCN(C(=O)c1cccc(OC)c1)CC2 | inactive
18 | Clc1ccccc1CNCC1CCC(CNCc2ccccc2Cl)CC1 (stereo not drawn) | inconclusive: 39.8 µM [inhibitor, partial curve, poor fit]
19 | Cc1ccc(NC(=O)N2CCC(CCNC(=O)c3ccsc3)CC2)cc1 | inactive
20 | COc1ccc(CC(=O)N2CCC(Cc3nc(-c4ccccc4)no3)CC2)cc1 | inactive
21 | CN(C)C(=O)C(=O)c1cn(C)c2cc(Cl)c(C(=O)N3CCC(Cc4ccc(F)cc4)CC3)cc12 | inconclusive: 3.16 µM [inhibitor, single point]

Row | Structure (SMILES) | Potency
22 | NC(=O)CN1CCC2(CC1)CCN(C(=O)Cc1cnc[nH]1)CC2CO (stereo not drawn) | inactive
23 | CC1(C(=O)NCC2CC2)CCc2cnc(Nc3ccccc3)nc21 (stereo not drawn) | inactive
24 | O=C(c1ccccc1F)N1C[C@@H](CO)[C@H](c2nc(C3CC3)no2)C1 | inconclusive: 6.31 µM [inhibitor, single point]
25 | O=C(N[C@H]1C[C@@H]2OCC[C@H]12)c1cccnc1SCCc1ccccc1 | inconclusive: 5.01 µM [inhibitor, partial curve]
26 | COc1cccc(CN2CCC(N3CCCNC3=O)CC2)c1 | inactive
27 | Cc1nn2c(c1-c1ccccc1OCc1ccccc1)N(C(=O)C1CCOCC1)CCC2 | inconclusive: 11.2 µM [inhibitor, single point]
28 | COc1ccccc1-c1cccc(CN2CCC(NC(=O)C3CC3)CC2)c1 | inconclusive: 5.01 µM [inhibitor, single point]
29 | O=[N+]([O-])c1ccc(CSc2ncnc3c2ncn3[C@@H]2O[C@H](CO)[C@@H](O)[C@H]2O)cc1 | inconclusive: 4.47 µM [inhibitor, single point]
30 | COCC(=O)NC[C@@H]1C=C(C)[C@H](Cc2nc3ccc(F)cc3[nH]2)C[C@H]1C(C)C | inconclusive: 35.5 µM [inhibitor, single point]
31 | CN(C)C[C@@H]1CN(S(C)(=O)=O)C[C@H]1NC(=O)Cc1c(F)cccc1Cl | inconclusive: 2.82 µM [inhibitor, partial curve, poor fit]
32 | O=Nc1ccc2oc(=O)ccc2c1 | inconclusive: 39.8 µM [inhibitor, single point]
33 | O=C(NC1CCc2nn(CC3CC3)c(=O)n2CC1)c1ccc2nc[nH]c2c1 (stereo not drawn) | inactive
34 | CCOc1ccccc1NC(=O)NCCn1c(C)cnc1C1CC1 | inconclusive: 4.47 µM [inhibitor, full curve, poor fit]
35 | COc1ccc2cc(C(C)C(=O)Oc3ccc(C(N)=S)cc3)ccc2c1 (stereo not drawn) | inactive
36 | COc1ccc(NC(=O)N2CCCC(Cn3cnc4cccnc43)C2)c(C)c1 (stereo not drawn) | inconclusive: 39.8 µM [inhibitor, single point]
37 | COc1ccc(-c2[nH]nc3ncc(C(=O)NCC(C)C)nc23)c(C)c1 | inconclusive: 25.1 µM [inhibitor, partial curve, poor fit]
38 | O=C(NCC1CCN(c2cc(-c3ccc(Cl)cc3)[nH]n2)CC1)c1ccc2nc[nH]c2c1 | inconclusive: 20 µM [inhibitor, single point]
39 | CC(Oc1ccccc1)C(=O)N1CCC2(CC1)NC(=O)N(c1ccccc1Cl)N2 (stereo not drawn) | inconclusive: 39.8 µM [inhibitor, single point]
40 | COCCNC(=O)[C@@H]1C[C@H](Oc2ccccc2)CN1C(=O)Cc1cccc(F)c1 | inconclusive: 7.08 µM [inhibitor, single point]
41 | COc1ccc(CNC[C@H]2Cn3c(-c4ccc(Cl)cc4)cnc3CO2)cn1 | inconclusive: 31.6 µM [inhibitor, single point]
42 | O=C(c1ccc(F)cc1)N1CCCC(CN2CCCC2)CC1 (stereo not drawn) | inconclusive: 39.8 µM [inhibitor, single point]

Row | Structure (SMILES) | Potency
43 | COc1ccccc1C(=O)N1CCN(c2nccc(Nc3ccccc3Cl)n2)CC1 | inactive
44 | COc1cccc(NC(=O)CCC2CCN(C(=O)CN3C(=O)CNC3=O)CC2)c1 | inconclusive: 0.708 µM [inhibitor, full curve, poor fit]
45 | Cc1noc(-c2ccc(OC3CN(C(=O)c4sccc4C)C3)cc2)n1 | inconclusive: 39.8 µM [inhibitor, partial curve, poor fit]
46 | CCN1C(=O)CCC2(C(=O)NCCc3c[nH]c4ccccc34)CCCC=C12 (stereo not drawn) | inconclusive: 1.78 µM [inhibitor, full curve, poor fit]
47 | C#CCNC(=O)[C@@H]1Cc2cn(Cc3nccn3C)c3cccc(c23)[C@H](CC(C)C)N1 | inconclusive: 50.1 µM [inhibitor, single point]
48 | NC(=O)c1cccc(CN2CCC3(Cc4ccccc4N(C(=O)c4ccc(Cl)cc4)C3)C2)c1 (stereo not drawn) | inconclusive: 39.8 µM [inhibitor, single point]
49 | Cc1ccc(-c2ccc3nnc(CNC(=O)c4cccn4C)n3n2)cc1C | inconclusive: 39.8 µM [inhibitor, single point]
50 | CCOCC1(C)COc2ccc(C(=O)Nc3ccc(OC)nc3)cc2N1 (stereo not drawn) | inactive
51 | O=S(=O)(c1ccc(F)cc1)N1CCc2nnc(C3CC3)n2CC1 | inactive
52 | COc1ccc(-c2ccnc3nc(CC(C)C)nn23)c(F)c1 | inconclusive: 35.5 µM [inhibitor, single point]
53 | CN1CCC2(C1)CN(CC1CC1)c1ccc(C(=O)NCCOc3ccccc3)cc12 (stereo not drawn) | inconclusive: 35.5 µM [inhibitor, single point]
54 | O=C(O)COc1ccc(-c2nccc3c2C(=O)N(Cc2cccc(C(F)(F)F)c2)CC(COc2cccc(F)c2)O3)cc1 (stereo not drawn) | inconclusive: 4.47 µM [inhibitor, full curve, poor fit]
55 | O=C(NCC1CCCCCC1)[C@@H]1CCCN1c1nccc(Nc2ccccc2Cl)n1 | inactive
56 | COCC1CN(C(=O)CN2CCCC2=O)CC12CCNCC2 (stereo not drawn) | inconclusive: 15.8 µM [inhibitor, partial curve, poor fit]
57 | COc1ccc(C2(C(=O)N3CCC4(CC3)CC(C(=O)N3CCOCC3)N(C)C4)CC2)cc1 (stereo not drawn) | inconclusive: 0.708 µM [inhibitor, full curve, poor fit]
58 | O=C(c1ccccc1)N1CCC2(CC1)C(=O)NN=C2c1cccnc1 | inactive
59 | O=C([C@H]1C[C@H](Oc2ccccc2)CN1S(=O)(=O)Cc1ccccc1F)N1CCOCC1 | inconclusive: 22.4 µM [inhibitor, single point]
60 | Cc1ccc(S(=O)(=O)Nc2ccc(C)n(CC(=O)Nc3ccc(C)cc3C)c2=O)cc1 | inconclusive: 6.31 µM [inhibitor, single point]
61 | CC(=O)N1CCC(C(=O)N2CCCC2c2nc3ccncc3[nH]2)CC1 (stereo not drawn) | inactive
62 | COc1ccc2nc(-c3cc(OC)c(OC)c(OC)c3)cc(C(=O)NCC(=O)Nc3ccc(C(C)=O)cc3)c2c1 | inactive
63 | COc1cccc2c1C(=O)c1c(O)c3c(c(O)c1C2=O)C[C@@](O)(C(=O)CO)C[C@@H]3O[C@H]1C[C@H](N)[C@@H](O)[C@H](C)O1 | inconclusive: 48.5 µM [inhibitor, partial curve, poor fit]
